± gives the standard deviation of the averaged measurements. This is one part of the list.
Tested on: PfAP2-I AP2 domain 3 (GST-tagged)
Test: gcPBM binding intensity (ln(normalized median fluorescence intensity)); higher = stronger DNA binding
Summary of the method: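 Probes on an Agilent 4 × 180k array were primer-extended, double-stranded and 36 bp long, taken from intergenic genomic regions, with negative controls added. GST-tagged P. falciparum DNA-binding domains from E. coli, about 25 μg on average, were applied to the array for 1 h in 1× PBS containing 1% milk, 0.2 mg/ml BSA, 0.5% salmon testes DNA and 0.03% Triton X-100. Binding intensity, obtained after Alexa488 anti-GST antibody detection and a 488 nm scan, is the highest Masliner-normalised natural-log median intensity across replicate spots of either probe orientation.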

Sequence	gcPBM binding intensity (ln)
AAAATGTATATTGGCGCATGTAAACAAATACTATAC [TGCATGCA_site385]	8.1 ± 0.81
TCAAAATGTGACATAAAAGAAAAAAAAAAAAAAAAA [CACACA_negctrl_site1092]	8.12 ± 0.69
GATAATAATAAGTGTACACATATATTTAGAAGAGTA [CACACA_site4245]	8.3
TGGGGTATTAAAAAAACACACAAAAAAAATATAAAG [CACACA_site1915]	8.06 ± 0.42
TCCTCATTTTATCATACACACTTGTTTATATGTGTG [CACACA_site6548]	7.71 ± 0.42
TATATATATATAATTTGTACACACAAATATGCATAT [XGTACX_site7297]	9.26 ± 0.35
ATATATAATAATTGTAGTACAATTAATAAATAAAAT [XGTACX_site3840]	7.91 ± 0.33
ATACGATTGCAGTCAAAAAGGAAAATATAAAAAAAG [XGTACX_negctrl_site124]	7.93 ± 0.67
AATATTTATAAATTTACACACACACCCGTGAACATA [CACACA_site1910]	7.99 ± 0.71
TTATCATTTTAAATCACACACATATATAAATATGTA [CACACA_site7359]	7.8 ± 0.25
AATGATTTTGATTAACGTACGTACAAATATATATAT [XGTACX_site6604]	8.87 ± 0.28
TATATATTATATAAATAAATAAATATATATATTTAT [TGCATGCA_negctrl_site270]	7.28 ± 0.4
TTATTAAATATAAATATGTATCTTTTATGTTATATT [CACACA_negctrl_site306]	7.29 ± 0.44
AGACCTATGATATATACACACATATAAATAAATATA [CACACA_site6725]	7.74 ± 0.44
AATGTTAAACTATGATGTACGGTTAAAAATATAATT [XGTACX_site893]	7.92 ± 0.64
TATTTTACGACATACCAAAAAAAAAAAAAAAAAATA [CACACA_negctrl_site1254]	7.39 ± 0.42
AAAAAAAAAAGACACACACACATAGACCTCCAATAG [CACACA_site7646]	8.03 ± 0.45
TAAATCCGCAGGCACACACACATATTAATAAAAAAA [CACACA_site3991]	7.96 ± 0.59
TGATATTATAGATATACACACATGTATGTATTTATA [CACACA_site6758]	7.39 ± 0.39

Sequence	gcPBM binding intensity (ln)
AAATTTAGTAAAAAATGTACGTAAAATGTAAAATAT [XGTACX_site1314]	8.11 ± 0.61
AAGGTAAACGGACACACACACATACAAAAAAAAAAA [CACACA_site5961]	8.25 ± 0.64
ATACTAACATTTTTTTGTACATATAACTATAAAATA [XGTACX_site1033]	8.09 ± 0.47
TATAAAAAAATAAAAGGAATATACTTGCAAAGGGTA [CACACA_negctrl_site1438]	8.28 ± 0.59
AACAATATATTGATATTATTTTAAGTGATTATATAT [XGTACX_negctrl_site205]	7.45 ± 0.63
AATAATAAAAAAAGTGCACACACATAATATATATAT [CACACA_site9100]	9.95 ± 0.014
TTTTTTTTTGTTATGTTGCACTTTGCCATATTATTA [GTGCAC_site9844]	9.6 ± 0.19
TTTCAAATGATTAAGTGTACATGTTTGCTTGCTCTT [XGTACX_site4697]	7.49 ± 0.61
AATTTTATTACTTTTACACACCTATATATCATTCAT [CACACA_site7525]	8.09 ± 0.59
ACCTTAAATAATACATGTACAAAAAAATTTATAATA [XGTACX_site1043]	8.21 ± 0.13
TAGGGATTATACCACACACACATACACATAAATATA [CACACA_site3178]	7.86 ± 0.32
AAGAATAAGGAAAAATGTACAGAATGCACATATGAA [XGTACX_site4705]	8.37 ± 0.67
ATGTATATATATATATGTACATATTTTTTATATGTA [XGTACX_site441]	7.71 ± 0.42
TTCTTTTTTTAAAGAAGTACTATATTTTAAATTATA [XGTACX_site5059]	7.66 ± 0.11
TTTAAAATAAATTAATAGAACAAAAATAAAATGATT [GTGCAC_negctrl_site375]	7.78 ± 0.67
AAAAAAAATACAAAAAGTACAAAAAATACAAAAAAA [XGTACX_site8844]	7.68 ± 0.56
TTTGAGTTACTATTCACACAAAATGGATAAATTAAT [CACACA_site5626]	7.64 ± 0.52
CACATAAATAATTAAACACACATTGTTCTAGACAAT [CACACA_site2378]	7.52 ± 0.48
TAGTTTTGAAAACAAACACACAAAAAAAAAAAAAAA [CACACA_site1692]	8.05 ± 0.9

Sequence	gcPBM binding intensity (ln)
TACATATTACTATTCAGTACATATTTTTTTTTCATT [XGTACX_site7468]	7.59 ± 0.53
TATATAGGTATATATACACACAACGGTTATAAATAT [CACACA_site4759]	7.84 ± 0.6
TATAAAGACACGAAAACACACATATGTAAATATATA [CACACA_site8056]	7.91 ± 0.65
AATATAAAAAATAATACACACACATGGCGACAAAAT [CACACA_site8765]	8.39 ± 0.5
ATGTAAGTAATTATCTGTACACATAATATATATATA [XGTACX_site2618]	8.98 ± 0.13
TTCTGTCAATATGCTTGTACGAAATATTTCGTAATT [XGTACX_site3182]	8.04 ± 0.4
AAAATAAACCCAGACACACTCATTAAAAAATATCAT [CACACA_site5903]	7.65 ± 0.54
TATTAATCCTTTTGCTTGGAAACATTCAAAAGGAAG [CACACA_negctrl_site1129]	7.36 ± 0.47
ATAAATAAATACTAGGCACACACACCGATATATATA [CACACA_site8649]	8.32 ± 0.85
ATATATATAAAATATGGTACAGAAAAAGTCTTGTTT [XGTACX_site8868]	8.2 ± 0.73
AATCCTTAAAATTAACGTACGAAATGAATTTATTAA [XGTACX_site956]	7.67 ± 0.41
TGGAGGTCATTACACAGTACCCAGGAAATCTACGGA [XGTACX_site2004]	7.76 ± 0.61
AAACCGTGGGAGCACACACACACACCCACCCATATA [CACACA_site332]	8.35 ± 0.53
ATAATAACAAAATATTAACACACATAACATATTATA [CACACA_site8906]	7.53 ± 0.57
ACAAAACAAAACAAAAGTACACAAAATAAATAAGAT [XGTACX_site6497]	8.04 ± 0.7
TTAAATAATGCCACCAGTACCCACTGAAAGAAAAAA [XGTACX_site5013]	8.855 ± 0.078
CAATTGATATTGAAATGTACTTTTTAGATGAACCTT [XGTACX_site2354]	7.46 ± 0.44
TATATTAAAATTTACTGTACTTTTTTTATTTTAAAA [XGTACX_site4077]	7.8 ± 0.17

Source: the supplement of paper PMC11417369
